# Measured values from PMC4336329 (PLoS ONE, 2015).
# The whole screen tested about 310,000 compounds, of which about 2,200 (0.71%) showed an effect of 50% or more. Effects have a minus sign here. The list shows a part of the results.
# Molecular target: human ether-à-go-go-related gene (hERG) potassium channel (human, UniProt Q12809)
# Assay: primary screen, population patch clamp on CHO cells stably expressing hERG
# Sequence of human ether-à-go-go-related gene (hERG) potassium channel (Q12809 whole entry, looked up): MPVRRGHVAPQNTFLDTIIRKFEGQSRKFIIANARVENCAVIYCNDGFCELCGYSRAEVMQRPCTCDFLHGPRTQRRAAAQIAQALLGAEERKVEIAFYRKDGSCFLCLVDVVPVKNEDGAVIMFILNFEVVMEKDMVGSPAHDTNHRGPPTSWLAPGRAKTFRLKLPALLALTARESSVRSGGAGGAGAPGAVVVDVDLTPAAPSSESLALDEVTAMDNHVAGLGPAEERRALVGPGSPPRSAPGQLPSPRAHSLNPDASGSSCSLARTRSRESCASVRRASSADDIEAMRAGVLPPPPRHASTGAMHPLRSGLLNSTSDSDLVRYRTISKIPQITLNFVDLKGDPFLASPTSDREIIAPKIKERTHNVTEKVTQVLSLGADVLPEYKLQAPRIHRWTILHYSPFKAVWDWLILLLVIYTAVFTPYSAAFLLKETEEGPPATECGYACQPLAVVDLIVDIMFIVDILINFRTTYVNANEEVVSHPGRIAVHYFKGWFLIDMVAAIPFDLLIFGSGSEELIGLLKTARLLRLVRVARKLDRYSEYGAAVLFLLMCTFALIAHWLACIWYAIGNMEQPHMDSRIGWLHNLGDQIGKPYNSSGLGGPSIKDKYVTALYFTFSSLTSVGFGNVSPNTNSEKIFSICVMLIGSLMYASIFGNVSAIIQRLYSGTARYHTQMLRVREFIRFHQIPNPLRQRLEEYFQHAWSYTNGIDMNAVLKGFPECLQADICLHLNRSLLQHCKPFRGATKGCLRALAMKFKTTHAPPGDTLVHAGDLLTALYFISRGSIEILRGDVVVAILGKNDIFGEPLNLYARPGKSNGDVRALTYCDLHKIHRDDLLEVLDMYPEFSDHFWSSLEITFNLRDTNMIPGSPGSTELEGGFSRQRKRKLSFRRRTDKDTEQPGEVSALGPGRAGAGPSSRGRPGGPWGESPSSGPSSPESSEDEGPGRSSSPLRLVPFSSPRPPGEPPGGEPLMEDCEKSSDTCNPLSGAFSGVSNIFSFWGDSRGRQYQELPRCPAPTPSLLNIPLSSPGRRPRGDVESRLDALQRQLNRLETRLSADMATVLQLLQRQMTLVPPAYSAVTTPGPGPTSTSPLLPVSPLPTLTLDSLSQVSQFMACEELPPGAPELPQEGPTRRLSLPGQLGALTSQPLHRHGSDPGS
row,SMILES,"hERG current change (%, negative = inhibition) at 1uM"
1,O=C(CCl)NNc1nc(-c2ccccc2)c2cc(Cl)ccc2n1,3.96%
2,CCOP(=O)(OCC)C(Nc1cccc(C)c1)c1ccc(F)cc1 (stereo not shown),12.6%
3,CCn1c(SCC(=O)N/N=C/c2ccccc2OCC(=O)O)nnc1-c1ccc(OC)cc1,12%
4,Cn1c(=O)[nH]c(=O)c2c1nc(N1CCCCCC1)n2Cc1cccc2ccccc12,-0.352%
5,Cn1c(=O)c(=O)n(C)c2cc(S(=O)(=O)N3CCCCC3)ccc21,3.27%
6,O=c1oc2cc(OCc3ccc(F)cc3F)ccc2cc1-c1ccc2ccccc2n1,6.99%
7,CCCn1c(SCC(=O)NCc2ccccc2Cl)n[nH]c1=O,8.08%
8,C/C(=N\NC(=O)c1ccn(C)n1)c1cccc(NC(=O)c2ccc(C)s2)c1,-8.31%
9,O=C(NC1CCN(C(=O)Nc2ccccc2Cl)CC1)c1cccc(F)c1,11.3%
10,COc1ccc(OC)c(-n2c(C)cc(/C=C3\C(=N)N4N=C(CC(=O)N5CCOCC5)SC4=NC3=O)c2C)c1,16%
11,Cc1cc(=O)[nH]c(SCC(=O)Nc2nc(-c3ccccc3)cs2)n1,11.5%
12,C=CCNC(=S)N/N=C/c1ccccc1OCCOc1ccccc1,3.84%
13,Br.Nc1ccc(Nc2nc(-c3ccncc3)cs2)cc1,3.54%
14,CC(=O)c1cnc2c(-c3ccc(Cl)cc3)cnn2c1C,3.32%
15,Cc1noc(C)c1CSc1nnc2scc(-c3ccc(Cl)cc3)n12,-8.44%
16,CCOC(=O)N1CCC(NC(=O)c2sc(-n3cccc3)nc2C)CC1,0.206%
17,Cc1cccc(CS(=O)(=O)Cc2ccc(C(=O)O)o2)c1,13.2%
18,CCn1c(N)c(C(=O)NCCOC)sc1=S,12.3%
19,Cc1ccccc1N(Cc1cc(=O)[nH]c2ccccc12)C(=O)C(C)C,5.33%
20,CC(Cc1cnccn1)NC(=O)c1cc(COc2ccc(F)cc2F)on1 (stereo not shown),14%
21,Cc1ccc(-n2ncc3c(=O)n(CC(=O)N(C)C)cnc32)cc1C,9.26%
22,C=CCNC(=O)c1onc(CSc2cccc(OCC)c2)c1C(=O)O,10.3%
23,CCc1ccccc1NC(=O)CC1S/C(=N\c2nccs2)N(CC)C1=O (stereo not shown),7.62%

row,SMILES,"hERG current change (%, negative = inhibition) at 1uM"
1,Cc1ccnc(NC(=O)c2cccs2)c1,10.2%
2,NC(=O)c1oc2ccccc2c1NC(=O)c1ccc([N+](=O)[O-])o1,16.8%
3,O=C(Nc1cccc(-c2nc3ccccc3[nH]2)c1)c1ccco1,18.5%
4,O=C(Nc1ccccc1)ON=C1c2ccccc2-c2ccccc21,12.7%
5,C/C(=N\NC(=O)CN1CCCCC1)c1ccccc1O,9.12%
6,COc1ccc(Cn2c(CCCO)nc3ccccc32)cc1OC,-1.67%
7,Cc1cc(OC(C)C(=O)NCC(O)c2ccccc2)c2c(C)cc(=O)oc2c1 (stereo not shown),8.66%
8,O=C1c2ccccc2CN1CCSC(=S)N1CCOCC1,-1.51%
9,COc1ccccc1Oc1nnnn1-c1ccc(C(N)=O)cc1,-0.0041%
10,O=C1c2cccc3c(N4CCCCC4)ccc(c23)C(=O)N1CCO,10%
11,COc1ccc(C(=O)NC2CC2)cc1OC1CCN(Cc2cnn(C)c2C)CC1,-2%
12,CC(=O)Nc1cc2c(cc1NC(=O)Cn1nc(-c3ccc(F)cc3)ccc1=O)OCCO2,-0.121%
13,COC(=O)c1ccc(CN2C(=O)c3ccccc3C2=O)cc1,9.13%
14,CCOc1ccc2nc(NC(=O)CSc3nc(SC)ns3)sc2c1,8.05%
15,COc1ccccc1C(CNC(=O)c1cc(S(=O)(=O)N2CCOCC2)ccc1C)N1CCCC1 (stereo not shown),11.2%
16,CNNC(=O)C(=O)NNS(=O)(=O)c1ccccc1,12.5%
17,OC[C@H]1NC[C@@H](O)[C@@H]1O,14.6%
18,CC(C)(C)N1C(=O)c2ccc(C(=O)Nc3ccc(-c4nc5ccccc5[nH]4)cc3)cc2C1=O,7.66%
19,COc1ccc(CCNC(=O)c2cc3c(=O)n4cccc(C)c4nc3n(CCCN3CCOCC3)c2=N)cc1,-85.1%
20,CC(C(=O)Nc1ccon1)N1C(=O)c2ccccc2S1(=O)=O (stereo not shown),-2.78%
21,Cl.c1ccc(C(c2ccccc2)N2CCN(Cc3nnnn3C3CCCC3)CC2)cc1,6.82%
22,CC1CC(C)CN(C(=O)c2ccc3c(=O)n(Cc4ccc5c(c4)OCO5)c(=S)[nH]c3c2)C1 (stereo not shown),6.76%
23,Cc1noc(C)c1COC(=O)C1CC(O)CN1S(=O)(=O)c1ccc(Cl)cc1 (stereo not shown),8.11%

row,SMILES,"hERG current change (%, negative = inhibition) at 1uM"
1,CCOC(=O)Cc1cnc(NC(=O)CSc2nc(C)cc(C)n2)s1,16.9%
2,FC(F)(F)c1ccc(-c2nnc(-c3cccnc3)o2)cc1,13.2%
3,O=C(c1ccc2nc(N3CCOCC3)sc2c1)N1CCCC1,3.54%
4,CC(=O)Nc1ccc(S(=O)(=O)N2CCSC2C(=O)O)cc1 (stereo not shown),8.15%
5,CN(C(=O)COC(=O)c1ccccc1NCCO)C1CCS(=O)(=O)C1 (stereo not shown),-8.2%
6,COc1cc2c(cc1OC)CN(C1CCC(C)CC1)CC2 (stereo not shown),11.2%
7,CSc1ccccc1COC(=O)Nc1ccccc1C,-10.9%
8,CCc1nnc(NC(=O)CCN2C(=O)C3CCCCC3C2=O)s1 (stereo not shown),6.55%
9,COc1ccc(C(CC(=O)O)c2ccc3c(c2)OCO3)cc1 (stereo not shown),6.26%
10,CC(C)NC(=O)CCNS(=O)(=O)c1ccc(Br)cc1,15.9%
11,COc1ccc(-c2nnc(SC(C)C(=O)NCc3ccc4c(c3)OCO4)n2Cc2ccco2)cc1 (stereo not shown),-16.1%
12,COc1ccc(NC(=S)N(CCCN2CCCC2)Cc2cccn2Cc2ccc(Cl)cc2)cc1Cl,3.12%
13,CCN(CC)CCCNC(=O)Cn1cnc2sc(C)c(S(=O)(=O)N3CCC(C)CC3)c2c1=O,14.3%
14,COc1cccc(OCc2cc(C(=O)NCCN3CCCCC3CO)no2)c1 (stereo not shown),15.3%
15,Cc1ccc(NC(=S)N2CCCC(O)C2)cc1 (stereo not shown),12.9%
16,COc1ccc(S(=O)(=O)N2CCN(C(=S)NCCc3ccccc3)CC2)cc1,15.9%
17,CNC(=O)c1sc2nc(-c3ccc(OC)cc3)cn2c1C,4.18%
18,COCCn1c(Br)nc2c1c(=O)n(C)c(=O)n2C,11.2%
19,CC(=O)Nc1ccc(NC(=O)CSc2nnc(-c3cc(C)[nH]n3)n2N)cc1,10.1%
20,CCN1CCN(C(=O)CN(C)S(=O)(=O)c2ccc(Cl)cc2)CC1,-6.47%
21,Cc1ccc(C2C3=C(CC(C)(C)CC3=O)OC3=C2C(=O)CC(C)(C)C3)cc1,9.94%
22,C=CCNC(=O)CSc1nnc(-c2ccccc2Br)n1-c1cccc(C(F)(F)F)c1,10.5%
23,O=C(NCCc1ccccc1)C1=COCCO1,4.58%

row,SMILES,"hERG current change (%, negative = inhibition) at 1uM"
1,CC(c1ccccc1)C1CC(=O)N(CC(=O)O)C1=O (stereo not shown),16.2%
2,C=CCN=C1N[C@@H](c2cccc(C(F)(F)F)c2)C(C(=O)OC)=C(C)N1CC,10.5%
3,C=C1C/C(=C/C)C(=O)O[C@@H]2CCN3CC=C(COC(=O)[C@]1(C)O)[C@H]23,5.45%
4,O=C1CC(Nc2ccc(N3CCOCC3)cc2)C(=O)N1Cc1ccccc1 (stereo not shown),14.4%
5,CC1CCCC(NC(=O)NC(=O)CCl)C1C (stereo not shown),13.7%
6,NNC(=O)CNC(=O)c1ccccc1F,13.1%
7,Nn1c(SCC(=O)Nc2ccc(N3CCOCC3)cc2)nnc1-c1ccccc1F,-1.52%
8,CC(C)OC(=O)C1CC=CCC1C(=O)Nc1ccc(Cl)cc1 (stereo not shown),7.99%
9,CSC1=N/C(=C/c2cccnc2)C(=O)N1Cc1ccc(Cl)cc1,12.7%
10,CCOC(=O)c1c(NC(=O)CSc2nnc(-c3ccccc3C)n2C)sc(C(C)=O)c1C,7.99%
11,O=C(O)c1nc2ccccc2nc1C(=O)O,14.5%
12,Cc1cc(C)n2nc(SCC(=O)Nc3ccccc3C)nc2n1,8.39%
13,Cc1nc2ccccc2nc1OCC(=O)NCc1ccc2c(c1)OCO2,9.2%
14,COc1cccc(N2C(=O)CN(Cc3ccccc3)C2=S)c1,9.25%
15,Cc1ccccc1OCc1nc2ccc(S(=O)(=O)N3CCOCC3)cc2[nH]1,10%
16,CCOCCn1c(SCCCc2ccccc2)nc2c1c(=O)[nH]c(=O)n2C,10.9%
17,O=C(NC1CCCN(Cc2ccc(Cl)cc2)C1)c1c(F)ccc(F)c1F (stereo not shown),-55.4%
18,CN(CCO)S(=O)(=O)c1ccc2c(c1)C(=NNC(N)=O)c1cc(S(=O)(=O)N(C)CCO)ccc1-2,9.96%
19,NC(=O)OCCSc1nnc(-c2cccc(C(N)=S)c2)o1,5.22%
20,O=C1NC(=Nc2ccccc2)c2ccc([N+](=O)[O-])cc21,9.19%
21,COc1ccc(CCc2nnc(CCC(=O)NCCc3ncccc3C)o2)cc1,3.99%
22,COc1ccc(OCCn2c(C)c(/C=N/n3cnnc3)c3ccccc32)cc1,4.76%
